# In all, about 33,000 sequences were measured (“E-score (-0.5 to 0.5)”: median about -0.012, highest 2% from about 0.27 on). The list shows a part of the results.
# Molecular target: T1, Vhr1 (UniProt P40522)
# T1 sequence: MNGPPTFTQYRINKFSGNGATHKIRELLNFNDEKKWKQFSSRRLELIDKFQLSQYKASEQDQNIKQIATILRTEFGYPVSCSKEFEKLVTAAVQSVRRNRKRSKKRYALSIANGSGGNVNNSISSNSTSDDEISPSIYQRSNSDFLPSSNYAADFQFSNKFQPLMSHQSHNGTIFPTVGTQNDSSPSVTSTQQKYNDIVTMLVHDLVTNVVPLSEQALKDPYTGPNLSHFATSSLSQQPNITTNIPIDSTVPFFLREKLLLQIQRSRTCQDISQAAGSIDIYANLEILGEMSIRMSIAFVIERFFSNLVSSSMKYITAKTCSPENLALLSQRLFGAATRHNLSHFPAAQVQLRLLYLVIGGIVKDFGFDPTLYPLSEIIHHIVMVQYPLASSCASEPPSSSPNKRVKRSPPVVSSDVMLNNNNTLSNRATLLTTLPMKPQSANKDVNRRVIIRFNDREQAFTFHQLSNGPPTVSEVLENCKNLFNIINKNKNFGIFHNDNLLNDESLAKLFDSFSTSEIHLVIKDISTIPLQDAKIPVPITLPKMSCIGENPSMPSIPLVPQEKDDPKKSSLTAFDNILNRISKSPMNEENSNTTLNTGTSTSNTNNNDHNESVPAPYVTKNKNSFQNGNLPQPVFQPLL
# Experiment: PBM E-score (8-mer binding enrichment) (E-score (-0.5 to 0.5)); higher = stronger / more preferred TF binding; most listed sequences are background and not binding sites
# Settings: protein concentration: 200 nM; construct: GST-full length
# Method in brief: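 Universal all-10-mer Agilent arrays, double-stranded by primer extension on fresh or once-stripped slides, were probed with about 100-200 nM GST-tagged yeast transcription factors made by PURExpress. Fluorescent anti-GST detected bound protein, and masliner normalised the scans. E-scores from the Universal PBM Analysis Suite were given to each ungapped eight-base word pooled with its reverse complement.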
row,Sequence,PBM E-score
1,AACCGACT,0.0478
2,AACAAACC,0.0727
3,CGCCGCGA,0.257
4,GTTAACTA,0.11
5,CGTCCCAA,-0.0198
6,CTCACCCC,0.318
7,CATCTCCC,-0.0736
8,AGGCCATG,0.0507
9,GCAAAAAC,-0.156
10,CTCAAGAC,-0.0966
11,ACCTATAG,-0.144
12,TCAGTAAA,0.152
13,CCTCATAC,-0.119
14,CGACGTAC,0.0727
15,CGTAGACG,-0.192
16,AACAACTC,-0.0423
17,CGCCCTAC,-0.116
18,GCGTGTAA,-0.0131
19,ACGGTCCG,-0.0765
20,GGGCACAA,0.0396
21,GTCGAAGA,-0.0328
22,CGTGCAAA,-0.162

row,Sequence,PBM E-score
1,GGCAAACA,0.0023
2,CCAGATCC,-0.0801
3,ATATGAGA,0.0143
4,CCCATTAG,-0.245
5,ACTAATTG,0.179
6,ACGTCGAG,-0.0236
7,GAACGTGC,-0.154
8,GAGAGTGC,-0.301
9,ACCGTGTA,0.15
10,CAATCCAC,0.117
11,TAAGCTGA,0.00653
12,AACCGGTA,-0.148
13,TAACCTAA,-0.187
14,CTGAAGAA,-0.18
15,CTCACCAC,0.0405
16,GAATTGGC,-0.176
17,ATAAACAT,-0.00214
18,GTATGCAA,0.141
19,CTCTAGAA,-0.101
20,GGGAGAGA,-0.214
21,AGCTTTAG,-0.192
22,CCTTGGGC,-0.158

row,Sequence,PBM E-score
1,TCATATAA,-0.0246
2,TAAATTCA,-0.0546
3,CCACCAGA,0.201
4,GTACATCA,0.266
5,ATCGAATA,0.00408
6,AGCTGCCT,-0.219
7,ACTAATGC,0.143
8,AAGAACTG,-0.0594
9,ACGCCGTC,-0.0654
10,TGTGGGAA,-0.109
11,CCGACCTC,-0.0746
12,CTCAGACA,-0.00101
13,AATCATTG,0.283
14,AGCCTGAT,-0.166
15,GGCGTCGA,0.133
16,ATACGCAC,0.0952
17,ATCGTCCA,-0.0611
18,GAGAAGGA,-0.134
19,CACTATAG,0.0647
20,GCTACATA,0.0513
21,CCACGACC,0.0103
22,AGCTACTC,0.00066

row,Sequence,PBM E-score
1,AAAATGGG,-0.244
2,CACATTAC,0.11
3,AGCTCGGC,-0.0942
4,AGCCACTA,0.014
5,CGGTCATC,0.124
6,GGATTTAC,-0.239
7,CCCCACGG,-0.0732
8,GAATCTCA,-0.0491
9,CTCAGATC,0.11
10,GAAGGTAA,0.00895
11,ACGTGCGG,-0.0456
12,CTCTTCTA,-0.137
13,ATATCCTA,0.109
14,AGGCCACT,-0.0952
15,TCGCAGAA,-0.0951
16,AATAGTCT,-0.0519
17,ATGTCGGC,-0.0481
18,TACCAAGA,0.0906
19,CCCCAGCA,-0.0375
20,GCAGTTGA,0.175

# — the supplement of paper PMC3334620
